The target of one experiment is T1, GST‐AmphCBM (human, UniProt P49418 349-358).
T1 construct: also called human amphiphysin I CBM; source: E. coli BL21(DE3) pLysS, purified (glutathione resin, SEC); not shown: GST, N-terminal, kept
T1 chain (looked up): ETLLDLDFDP
The experiment can be described thus: pull-down; 500 µg GST or GST-peptide bait on glutathione sepharose 4B; 0.1 mg/mL wild-type or mutant His-NTD-NEMO as prey, 2 h, 4°C; 25 mM HEPES-KOH, 125 mM potassium acetate, 5 mM magnesium acetate, 2 mM EDTA, 2 mM EGTA, 1 mM DTT, pH 7.2; washes with PBS; immunoblot with anti-clathrin NTD antibody; both purified. (In general: In western blotting, separated proteins are transferred to a membrane and probed.)

Sequences of proteins named here, by UniProt entry; tags and fusion partners are left off. A change or cut given only in a name is not applied to a line headed by its entry.
UniProt P49418: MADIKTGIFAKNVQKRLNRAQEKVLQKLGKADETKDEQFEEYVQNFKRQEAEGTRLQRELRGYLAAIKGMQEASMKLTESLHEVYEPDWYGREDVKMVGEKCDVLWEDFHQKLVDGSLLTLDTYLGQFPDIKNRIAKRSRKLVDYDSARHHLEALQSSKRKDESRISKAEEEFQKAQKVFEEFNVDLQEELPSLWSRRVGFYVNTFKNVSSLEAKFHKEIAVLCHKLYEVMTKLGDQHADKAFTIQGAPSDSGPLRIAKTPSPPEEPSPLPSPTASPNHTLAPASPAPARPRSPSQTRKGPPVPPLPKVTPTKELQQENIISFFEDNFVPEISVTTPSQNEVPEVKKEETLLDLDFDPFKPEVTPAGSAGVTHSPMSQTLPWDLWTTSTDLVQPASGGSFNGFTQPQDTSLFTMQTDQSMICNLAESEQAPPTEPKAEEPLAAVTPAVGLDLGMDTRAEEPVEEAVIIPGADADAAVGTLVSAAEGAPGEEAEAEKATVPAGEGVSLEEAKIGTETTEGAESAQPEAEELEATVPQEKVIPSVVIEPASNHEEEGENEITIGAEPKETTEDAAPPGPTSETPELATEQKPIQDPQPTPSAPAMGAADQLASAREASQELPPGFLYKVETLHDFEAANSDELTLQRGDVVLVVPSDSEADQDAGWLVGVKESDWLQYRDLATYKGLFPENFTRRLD
UniProt O08838: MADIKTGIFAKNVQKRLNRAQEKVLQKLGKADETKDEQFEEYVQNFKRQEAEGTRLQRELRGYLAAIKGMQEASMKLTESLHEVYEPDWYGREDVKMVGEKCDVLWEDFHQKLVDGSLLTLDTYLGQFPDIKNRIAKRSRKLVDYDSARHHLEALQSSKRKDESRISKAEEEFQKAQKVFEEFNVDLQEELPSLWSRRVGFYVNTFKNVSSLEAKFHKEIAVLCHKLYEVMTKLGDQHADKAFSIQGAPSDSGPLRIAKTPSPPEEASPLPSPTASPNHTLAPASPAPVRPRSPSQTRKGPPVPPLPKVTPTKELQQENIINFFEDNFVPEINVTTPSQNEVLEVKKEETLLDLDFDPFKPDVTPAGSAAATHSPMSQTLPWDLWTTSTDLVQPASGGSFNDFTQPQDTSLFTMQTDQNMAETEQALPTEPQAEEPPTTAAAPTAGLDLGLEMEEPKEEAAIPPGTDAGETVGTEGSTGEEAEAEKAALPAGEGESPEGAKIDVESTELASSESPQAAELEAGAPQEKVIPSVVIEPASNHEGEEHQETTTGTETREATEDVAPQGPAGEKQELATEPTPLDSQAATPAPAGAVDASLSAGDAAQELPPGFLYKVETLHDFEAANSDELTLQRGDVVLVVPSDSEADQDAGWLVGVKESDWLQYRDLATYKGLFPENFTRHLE
UniProt P63010: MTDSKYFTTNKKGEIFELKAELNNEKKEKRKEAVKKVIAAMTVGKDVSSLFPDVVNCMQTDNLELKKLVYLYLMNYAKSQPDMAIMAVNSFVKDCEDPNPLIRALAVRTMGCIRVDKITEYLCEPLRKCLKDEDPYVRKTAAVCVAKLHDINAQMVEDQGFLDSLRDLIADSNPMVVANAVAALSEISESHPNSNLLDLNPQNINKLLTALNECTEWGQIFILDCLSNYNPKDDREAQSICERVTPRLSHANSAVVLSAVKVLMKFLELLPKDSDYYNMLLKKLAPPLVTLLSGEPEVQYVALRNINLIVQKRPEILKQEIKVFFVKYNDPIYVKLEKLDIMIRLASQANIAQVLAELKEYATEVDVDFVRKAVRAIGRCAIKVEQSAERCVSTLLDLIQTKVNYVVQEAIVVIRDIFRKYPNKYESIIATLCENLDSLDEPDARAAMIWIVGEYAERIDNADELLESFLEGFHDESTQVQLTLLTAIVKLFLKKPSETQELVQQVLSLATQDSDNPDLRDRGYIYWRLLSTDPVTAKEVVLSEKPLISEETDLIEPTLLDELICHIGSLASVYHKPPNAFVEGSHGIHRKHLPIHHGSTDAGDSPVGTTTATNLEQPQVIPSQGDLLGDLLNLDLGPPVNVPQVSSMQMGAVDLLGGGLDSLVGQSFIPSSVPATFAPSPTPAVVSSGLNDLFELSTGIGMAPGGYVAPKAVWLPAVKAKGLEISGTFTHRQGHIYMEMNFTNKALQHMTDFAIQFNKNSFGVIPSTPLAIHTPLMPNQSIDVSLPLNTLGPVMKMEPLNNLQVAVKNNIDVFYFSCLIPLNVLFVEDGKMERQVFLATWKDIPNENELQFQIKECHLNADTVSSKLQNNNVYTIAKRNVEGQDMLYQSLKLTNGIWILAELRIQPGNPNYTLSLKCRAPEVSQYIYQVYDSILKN
UniProt P49951: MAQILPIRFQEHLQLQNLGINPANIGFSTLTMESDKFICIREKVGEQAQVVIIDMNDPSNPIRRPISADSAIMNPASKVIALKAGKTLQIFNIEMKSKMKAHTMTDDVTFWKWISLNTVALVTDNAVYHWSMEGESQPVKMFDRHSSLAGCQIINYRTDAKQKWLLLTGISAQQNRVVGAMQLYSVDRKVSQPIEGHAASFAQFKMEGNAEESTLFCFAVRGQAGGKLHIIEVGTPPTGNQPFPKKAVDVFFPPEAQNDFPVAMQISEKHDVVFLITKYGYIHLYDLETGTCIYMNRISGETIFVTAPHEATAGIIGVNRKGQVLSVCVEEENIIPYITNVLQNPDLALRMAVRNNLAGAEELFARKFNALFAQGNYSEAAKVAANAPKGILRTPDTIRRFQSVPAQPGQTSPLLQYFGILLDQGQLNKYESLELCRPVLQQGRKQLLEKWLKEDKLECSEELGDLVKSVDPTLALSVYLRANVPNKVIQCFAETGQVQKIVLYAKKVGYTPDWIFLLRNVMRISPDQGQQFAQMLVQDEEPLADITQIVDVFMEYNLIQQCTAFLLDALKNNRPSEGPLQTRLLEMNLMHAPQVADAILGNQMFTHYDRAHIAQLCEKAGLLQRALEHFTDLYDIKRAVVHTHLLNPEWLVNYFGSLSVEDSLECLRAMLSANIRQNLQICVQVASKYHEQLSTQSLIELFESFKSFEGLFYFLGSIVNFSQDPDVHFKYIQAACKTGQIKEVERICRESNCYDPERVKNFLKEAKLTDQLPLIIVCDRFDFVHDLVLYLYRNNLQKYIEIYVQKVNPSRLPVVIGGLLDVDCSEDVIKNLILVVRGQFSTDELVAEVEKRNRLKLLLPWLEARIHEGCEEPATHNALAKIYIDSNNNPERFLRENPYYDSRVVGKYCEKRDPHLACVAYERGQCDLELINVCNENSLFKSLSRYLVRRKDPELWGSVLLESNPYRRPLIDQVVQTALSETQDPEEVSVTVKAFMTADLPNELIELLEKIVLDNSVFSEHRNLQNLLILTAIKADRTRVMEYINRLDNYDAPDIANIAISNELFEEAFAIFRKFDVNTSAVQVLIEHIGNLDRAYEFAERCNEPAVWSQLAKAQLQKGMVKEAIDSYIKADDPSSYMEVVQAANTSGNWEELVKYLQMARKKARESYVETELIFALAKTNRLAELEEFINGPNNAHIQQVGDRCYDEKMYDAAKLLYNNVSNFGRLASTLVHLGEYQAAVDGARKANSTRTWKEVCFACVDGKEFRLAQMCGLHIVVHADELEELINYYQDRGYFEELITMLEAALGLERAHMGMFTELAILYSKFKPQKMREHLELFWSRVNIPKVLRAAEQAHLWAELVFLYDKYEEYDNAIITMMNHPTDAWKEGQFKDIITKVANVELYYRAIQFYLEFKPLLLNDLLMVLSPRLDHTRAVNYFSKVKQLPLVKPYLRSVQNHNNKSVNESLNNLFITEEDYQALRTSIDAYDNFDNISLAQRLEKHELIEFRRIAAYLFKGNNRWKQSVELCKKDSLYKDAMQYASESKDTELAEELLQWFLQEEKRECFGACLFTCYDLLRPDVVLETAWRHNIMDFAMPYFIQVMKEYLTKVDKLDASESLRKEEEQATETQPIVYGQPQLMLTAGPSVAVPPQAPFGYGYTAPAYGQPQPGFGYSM
UniProt Q9Y6K9: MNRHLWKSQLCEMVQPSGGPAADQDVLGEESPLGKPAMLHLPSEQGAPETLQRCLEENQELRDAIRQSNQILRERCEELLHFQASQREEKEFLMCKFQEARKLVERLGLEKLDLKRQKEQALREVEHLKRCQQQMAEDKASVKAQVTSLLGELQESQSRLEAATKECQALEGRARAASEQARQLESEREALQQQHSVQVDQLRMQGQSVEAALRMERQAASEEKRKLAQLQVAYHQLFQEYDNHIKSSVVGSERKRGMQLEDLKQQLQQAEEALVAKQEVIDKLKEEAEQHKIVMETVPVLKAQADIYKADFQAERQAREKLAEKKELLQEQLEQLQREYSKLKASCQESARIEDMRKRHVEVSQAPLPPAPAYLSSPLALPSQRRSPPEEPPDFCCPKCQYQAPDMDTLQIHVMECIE

The target in the next experiment is T2, GST‐Wbox (human) (UniProt P49418).
T2 sequence: TLPWDLWTTS
The description is as above.

Another experiment deals with T3, GST‐Amph4T1 (rat, UniProt O08838 349-356).
T3 construct: also called extended amphiphysin CBM construct; source: E. coli BL21(DE3) pLysS, purified (glutathione resin, SEC)
T3 chain: ETLLDLDFLERPHRD
The experiment is described as above.

For a further experiment, the target named is T4, GST‐AP2CBM (human, UniProt P63010 629-640).
T4 construct: also called CBM from flexible hinge of β2 adaptin subunit of human AP2; source: E. coli BL21(DE3) pLysS, purified (glutathione resin, SEC); not shown: GST, N-terminal, kept
T4 chain (looked up): GDLLNLDLGPPV
The description is as above.

Experiment [1] deals with GST‐HDAg‐L2 (hepatitis D virus clade II) (UniProt A4ZNG7). The description is as above.
The target in a further experiment is GST‐AP2arrL (human) (UniProt P63010). The experiment is described as above.
Another experiment has as its target T5, GST‐AP2arrS (human, UniProt P63010 623-632).
T5 construct: also called extended arrestin motif (LLGDLL); source: E. coli BL21(DE3) pLysS, purified (glutathione resin, SEC); not shown: GST, N-terminal, kept
T5 chain (looked up): SQGDLLGDLL
Described as above.

The target in experiment [2] is T6, His‐NTD‐NEMO (wild type) (bovine | not stated) (UniProt P49951+Q9Y6K9). As to the kind of experiment: condition: only at low concentrations of injected His‐NTD‐NEMO; SEC-MALS; His-NTD-NEMO injected at low concentrations of a series of 6; Superdex 200 10/300, 22°C, 20 mM Tris pH 7.5, 200 mM NaCl, 1 mM DTT; both purified. In general terms: Size exclusion chromatography separates by hydrodynamic size, large species first.

The target in experiment [3] is T6, His‐NTD‐NEMO (wild type) (bovine | not stated). The experiment can be described thus: SEC-MALS; His-NTD-NEMO injected at higher concentrations of a series of 6; Superdex 200 10/300, 22°C, 20 mM Tris pH 7.5, 200 mM NaCl, 1 mM DTT; both purified.

Numbering of substitutions follows the chain as printed. Names and notes keep the numbering of the source. No constants are given. Whether binding was seen depends on the method and setting. Some results given as binding are weak or reduced against the parent protein; the word gives no strength. For some assays here: Tags and fused reporters may be left off the sequences shown.

On to “His‐NTD‐NEMO (wild type) (from UniProt P49951 1-363; Q9Y6K9 246-365)”, for which the binding entry is listed as “binds” with GST‐AmphCBM; “binds” with GST‐Wbox (human); “binds” with GST‐Amph4T1; “binds” with GST‐AP2CBM; “no binding (tested: 0.1 mg/mL His‐NTD‐NEMO)” in experiment [1]; “binds” with GST‐AP2arrL (human). Also, the binding entry with GST‐AP2arrS is given as “binds”; in experiment [2], “no binding”; in [3], “binds”.

B1: His‐NTD‐NEMO Q89A + F91K + F9W (other, UniProt P49951 1-363, looked up)
chain: MAQILPIRWQEHLQLQNLGINPANIGFSTLTMESDKFICIREKVGEQAQVVIIDMNDPSNPIRRPISADSAIMNPASKVIALKAGKTLAIKNIEMKSKMKAHTMTDDVTFWKWISLNTVALVTDNAVYHWSMEGESQPVKMFDRHSSLAGCQIINYRTDAKQKWLLLTGISAQQNRVVGAMQLYSVDRKVSQPIEGHAASFAQFKMEGNAEESTLFCFAVRGQAGGKLHIIEVGTPPTGNQPFPKKAVDVFFPPEAQNDFPVAMQISEKHDVVFLITKYGYIHLYDLETGTCIYMNRISGETIFVTAPHEATAGIIGVNRKGQVLSVCVEEENIIPYITNVLQNPDLALRMAVRNNLAGAEELKSSVVGSERKRGMQLEDLKQQLQQAEEALVAKQEVIDKLKEEAEQHKIVMETVPVLKAQADIYKADFQAERQAREKLAEKKELLQEQLEQLQREYSKLKASCQESARIEDMRKRHVEVSQ
notes: also called mutant with disrupted clathrin and Royle boxes; printed in the text as Q98A + F91K + F9W; not shown: His6, N-terminal, kept
For B1, the binding entry in the experiment with GST‐AP2arrL (human) was “binds weakly”.

B2: His‐NTD‐NEMO Q89A + F91K + Q192Y (other, UniProt P49951 1-363, looked up)
chain: B1 chain with W9F, Q192Y
notes: also called His‐NTD‐NEMO mutated at both the clathrin and arrestin boxes; not shown: His6, N-terminal, kept
Take B2: the binding entry with GST‐AP2CBM is “no binding (tested: 0.1 mg/mL His‐NTD‐NEMO)”.

These data come from publication PMC5182127, “Cellular and viral peptides bind multiple sites on the N‐terminal domain of clathrin” (Traffic (Copenhagen, Denmark), 2016).
